Measured values: PubChem BioAssay (NCI)
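How tested: cells in 96-well plates exposed to compound for 48 hours at five concentrations. GI50: concentration for 50% inhibition of growth. At the TGI there is no net growth.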

system: NCI-H322M lung; assay: NCI tumour cell line growth inhibition, 48 h

| SMILES | TGI [µM] | GI50 [µM] |
| --- | --- | --- |
| O=C1/C(=C/c2ccccc2)CN(C(=O)/C=C/c2ccccc2)C/C1=C\c1ccccc1 | > 94 | – |
| O=C(O)CC(CC(=O)O)n1cccc1 | > 100 | – |
| Cc1nc2ccccc2c(/C=C/c2ccc(C(F)(F)F)cc2)c1C(=O)/C=C/c1ccccc1 | 2.83 | 1.49 |
| C=CCN=C1NC(=O)C(CC(=O)Nc2ccc([N+](=O)[O-])cc2[N+](=O)[O-])S1 (centres undefined) | > 100 | – |
| CC(=O)NC1=C(NCCO)C(=O)c2ccccc2C1=O | > 50 | – |
| C=CCC(NCc1ccccc1)c1cn(C(=O)OCC)c2ccccc12 (centres undefined) | > 100 | 32.8 |
| O=[N+]([O-])C(=C1c2ccccc2-c2ccccc21)[N+](=O)[O-] | > 100 | – |
| CS(C)(=O)=Nn1c(=O)n2n(c1=O)[C@H]1CC[C@@H]2C1 | > 100 | – |
| CCCCCCCCCCCCNC(=S)OCCCC | > 100 | – |
| C#CCNC(CCCN=C(N)N)C(=O)O (centres undefined) | > 100 | – |
| O=C(NCCc1nccs1)c1cnc2c(S)cccc2c1 | 13.4 | 2.78 |
| COc1ccc(/C=N/n2c(Cc3ccccc3)n[nH]c2=O)c(OC)c1 | > 100 | – |
| CC[C@@]1(O)C(=O)OCc2c1cc1n(c2=O)Cc2cc3c(N)c(OC)ccc3nc2-1 | 0.939 | 0.228 |
| CCN1C(c2ccccc2)=CC(c2ccccc2)(C(Cl)(Cl)Cl)C=C1c1ccccc1 | > 100 | – |
| CC1=NN(c2ccccc2Cl)C2(C1)C(Cl)C(=O)N2c1nc2ccccc2s1 (centres undefined) | > 100 | – |
| CCOC(=O)C1Cc2ccc(C)cc2C1=O (centres undefined) | > 100 | – |
| COc1cc2c(cc1OCCCN1CCN(CCCOc3cc4c(cc3OC)C(=O)N3C[C@H](F)C[C@H]3C=N4)CC1)N=C[C@@H]1C[C@@H](F)CN1C2=O | > 49.5 | 0.348 |
| CN(C)/C=N/S(=O)(=O)c1nn2c(C=O)c(-c3ccc(-c4ccccc4)cc3)nc2s1 | 23.5 | – |
| O=C1C=CC2(C=C1)O[C@H](CCc1ccccc1)[C@@H](CCc1ccccc1)O2 | > 100 | – |
| COc1cc(C)cc2c1C(=O)C(NC(C)=O)=CC2=O | > 100 | – |

| SMILES | TGI [µM] | GI50 [µM] |
| --- | --- | --- |
| CC1(C)C2CCC1(C)C(NC(=O)COCCOCC(N)=O)C2 (centres undefined) | > 100 | – |
| O=[N+]([O-])/C(C(Cl)=C(Cl)Cl)=C(\NCc1ccccc1)Sc1ccccc1 | > 100 | – |
| Cc1ccc2c(n1)C(=O)c1cc(C)c(C)cc1C2=O | > 100 | – |
| C[C@H]1CCC/C=C/[C@@H]2C[C@H](O)C[C@H]2[C@H](O)C(O)C(O)C(=O)O1 (some centres undefined) | > 100 | 2.49 |
| CCn1cnc(C[C@H](NC(=O)[C@@H](NC(=O)Nc2cc(C(F)(F)F)cc(C(F)(F)F)c2)C(C)(C)C)C(=O)OC)c1 | > 10 | > 10 |
| O=C1C2C3C=CC(C2C(=O)N1CN1CCOCC1)C1C2C(=O)N(CN4CCOCC4)C(=O)C2C31 (centres undefined) | > 100 | – |
| O=C(CC(=O)n1nc(-c2ccccc2)c(N=Nc2ccc([N+](=O)[O-])cc2)c1-c1ccccc1)Nc1ccc(Cl)cc1 | > 100 | – |
| N/N=C1\C(=O)N(c2ccc(Cl)c(Cl)c2)C(=O)C1C(=O)Nc1ccc(Cl)c(Cl)c1 (centres undefined) | > 100 | – |
| CC(C)(C)c1ccc(OCCCCCCCN2CCNCC2)cc1 | 2.96 | 1.55 |
| O=C1Sc2sc(=S)sc2SC1c1ccccc1 (centres undefined) | > 100 | – |
| NNC(=O)C(=O)N/N=C1\CCCC1C(=O)CCC(=O)Nc1cccc(Cl)c1 (centres undefined) | > 100 | – |
| CCOC(=O)CCC(NC(=O)c1ccc(Oc2nc3cc(N)cc(N)c3nc2-c2ccccc2)cc1)C(=O)OCC (centres undefined) | > 100 | 67.9 |
| CC1=CC(=O)c2ccc3c4ccccc4n(C)c3c2C1=O | > 100 | – |
| O=C(OCc1ccccc1)N1N=NC2C3CC(OCc4ccccc4)(OCc4ccccc4)C(O3)C21 (centres undefined) | > 100 | – |
| NNC(=S)N/N=C(\c1nc2ccc(Cl)cc2[nH]c1=O)C(O)c1cccc([N+](=O)[O-])c1 (centres undefined) | > 100 | – |
| O=C1c2c[n+](Cc3ccccc3)ccc2-c2nc3ccccc3c3ccnc1c23 | 1.94 | 0.516 |
| CN(C)Cc1cc(C(=O)/C=C/c2ccc(Cl)cc2Cl)cc(CN(C)C)c1O | 15.9 | – |
| CC(=O)OC1CCC2(C)C(=CCC3C2CCC2(C)C3CC3OC4(CCC(C)CN4)C(C)C32)C1 (centres undefined) | > 100 | – |
| CN1C=C(C(N)=O)Cc2ccsc21 | > 100 | – |
